{
  "source": "a collection of fitness landscapes (doi:10.1126/science.1257360)",
  "parents": {"B1": {"name": "PhoQ; a variant is named by its letters at X, in order, P23837 (parent)", "chain": "MKKLLRLFFPLSLRVRFLLATAAVVLVLSLAYGMVALIGYSVSFDKTTFRLLRGESNLFYTLAKWENNKLHVELPENIDKQSPTMTLIYDENGQLLWAQRDVPWLMKMIQPDWLKSNGFHEIEADVNDTSLLLSGDHSIQQQLQEVREDDDDAEMTHSVAVNVYPATSRMPKLTIVVVDTIPVELKSSYMVWSWFIYVLSANLLLVIPLLWVAAWWSLRPIEALAKEVRELEEHNRELLNPATTRELTSLVRNLNRLLKSERERYDKYRTTLTDLTHSLKTPLXXLQXXLRSLRSEKMSVSDAEPVMLEQISRISQQIGYYLHRASMRGGTLLSRELHPVAPLLDNLTSALNKVYQRKGVNISLDISPEISFVGEQNDFVEVMGNVLDNACKYCLEFVEISARQTDEHLYIVVEDDGPGIPLSKREVIFDRGQRVDTLRPGQGVGLAVAREITEQYEGKIVAGESMLGGARMEVIFGRQHSAPKDE"}},
  "note": "This is one part of the list.",
  "data": [
    {"variants_of": "B1", "assay": "enrichment ratio after two sorts for PhoP signalling (ratio (wild type AVST 3.29)); higher = more functional", "settings": "with PhoP (E. coli)", "values": [
      {"variant": "KTNA", "enrichment ratio": "≤ 0.25"},
      {"variant": "MICA", "enrichment ratio": "≤ 0.25"},
      {"variant": "NKVN", "enrichment ratio": "≤ 0.25"},
      {"variant": "EHKW", "enrichment ratio": "≤ 0.25"},
      {"variant": "MYHQ", "enrichment ratio": "≤ 0.25"},
      {"variant": "HPYF", "enrichment ratio": "≤ 0.25"},
      {"variant": "PRWR", "enrichment ratio": "≤ 0.25"},
      {"variant": "LNKT", "enrichment ratio": "≤ 0.25"},
      {"variant": "IYNL", "enrichment ratio": "≤ 0.25"},
      {"variant": "ACWQ", "enrichment ratio": "≤ 0.25"},
      {"variant": "GMAL", "enrichment ratio": 8.67},
      {"variant": "SWYN", "enrichment ratio": "≤ 0.25"},
      {"variant": "NTHP", "enrichment ratio": "≤ 0.25"},
      {"variant": "RWLK", "enrichment ratio": "≤ 0.25"},
      {"variant": "HHCH", "enrichment ratio": "≤ 0.25"},
      {"variant": "SARF", "enrichment ratio": "≤ 0.25"},
      {"variant": "NVVR", "enrichment ratio": "≤ 0.25"},
      {"variant": "NQAC", "enrichment ratio": "≤ 0.25"},
      {"variant": "QIPQ", "enrichment ratio": "≤ 0.25"},
      {"variant": "SIPL", "enrichment ratio": 10.4},
      {"variant": "QTRW", "enrichment ratio": "≤ 0.25"},
      {"variant": "RLNC", "enrichment ratio": "≤ 0.25"},
      {"variant": "FWWP", "enrichment ratio": "≤ 0.25"},
      {"variant": "VRYI", "enrichment ratio": "≤ 0.25"},
      {"variant": "MLRN", "enrichment ratio": "≤ 0.25"},
      {"variant": "IKMR", "enrichment ratio": "≤ 0.25"},
      {"variant": "NDIG", "enrichment ratio": "≤ 0.25"},
      {"variant": "ELLV", "enrichment ratio": "≤ 0.25"},
      {"variant": "YFGE", "enrichment ratio": "≤ 0.25"},
      {"variant": "RSFY", "enrichment ratio": "≤ 0.25"},
      {"variant": "GCRA", "enrichment ratio": "≤ 0.25"},
      {"variant": "FNDK", "enrichment ratio": "≤ 0.25"},
      {"variant": "LPAQ", "enrichment ratio": "≤ 0.25"},
      {"variant": "YSDN", "enrichment ratio": "≤ 0.25"},
      {"variant": "KDIL", "enrichment ratio": "≤ 0.25"},
      {"variant": "YHCV", "enrichment ratio": "≤ 0.25"},
      {"variant": "NNSQ", "enrichment ratio": "≤ 0.25"},
      {"variant": "HGPF", "enrichment ratio": "≤ 0.25"},
      {"variant": "YSEA", "enrichment ratio": "≤ 0.25"},
      {"variant": "YWDY", "enrichment ratio": "≤ 0.25"},
      {"variant": "DQRN", "enrichment ratio": "≤ 0.25"},
      {"variant": "YTVN", "enrichment ratio": "≤ 0.25"},
      {"variant": "WNPH", "enrichment ratio": "≤ 0.25"},
      {"variant": "DHCW", "enrichment ratio": "≤ 0.25"},
      {"variant": "HQPL", "enrichment ratio": "≤ 0.25"},
      {"variant": "PGCA", "enrichment ratio": "≤ 0.25"},
      {"variant": "WTLL", "enrichment ratio": 2.9},
      {"variant": "ERQG", "enrichment ratio": "≤ 0.25"},
      {"variant": "SSNA", "enrichment ratio": "≤ 0.25"},
      {"variant": "VIVY", "enrichment ratio": "≤ 0.25"},
      {"variant": "FCDV", "enrichment ratio": "≤ 0.25"},
      {"variant": "KPPN", "enrichment ratio": "≤ 0.25"},
      {"variant": "LFHN", "enrichment ratio": "≤ 0.25"},
      {"variant": "QYLY", "enrichment ratio": "≤ 0.25"},
      {"variant": "LLNL", "enrichment ratio": "≤ 0.25"},
      {"variant": "NCWM", "enrichment ratio": "≤ 0.25"},
      {"variant": "IVLP", "enrichment ratio": "≤ 0.25"},
      {"variant": "SKDE", "enrichment ratio": "≤ 0.25"},
      {"variant": "ETCW", "enrichment ratio": "≤ 0.25"},
      {"variant": "VNSK", "enrichment ratio": "≤ 0.25"},
      {"variant": "EQIS", "enrichment ratio": "≤ 0.25"},
      {"variant": "FPNK", "enrichment ratio": "≤ 0.25"},
      {"variant": "NSQK", "enrichment ratio": "≤ 0.25"},
      {"variant": "GESI", "enrichment ratio": 1.61},
      {"variant": "MEEI", "enrichment ratio": "≤ 0.25"},
      {"variant": "ARFD", "enrichment ratio": "≤ 0.25"},
      {"variant": "GKVW", "enrichment ratio": "≤ 0.25"},
      {"variant": "RTCD", "enrichment ratio": "≤ 0.25"},
      {"variant": "GFMW", "enrichment ratio": "≤ 0.25"},
      {"variant": "QHKA", "enrichment ratio": "≤ 0.25"},
      {"variant": "LGHG", "enrichment ratio": "≤ 0.25"},
      {"variant": "PPVS", "enrichment ratio": "≤ 0.25"},
      {"variant": "YSAK", "enrichment ratio": "≤ 0.25"},
      {"variant": "GAVQ", "enrichment ratio": "≤ 0.25"},
      {"variant": "VCAC", "enrichment ratio": "≤ 0.25"},
      {"variant": "RTTL", "enrichment ratio": "≤ 0.25"},
      {"variant": "KKFN", "enrichment ratio": "≤ 0.25"},
      {"variant": "RYRQ", "enrichment ratio": "≤ 0.25"},
      {"variant": "DVMA", "enrichment ratio": "≤ 0.25"},
      {"variant": "ESYL", "enrichment ratio": "≤ 0.25"},
      {"variant": "QYCL", "enrichment ratio": "≤ 0.25"},
      {"variant": "KFSS", "enrichment ratio": "≤ 0.25"},
      {"variant": "KTTM", "enrichment ratio": "≤ 0.25"},
      {"variant": "TCCP", "enrichment ratio": "≤ 0.25"},
      {"variant": "WYDP", "enrichment ratio": "≤ 0.25"},
      {"variant": "QPRA", "enrichment ratio": "≤ 0.25"},
      {"variant": "QAWT", "enrichment ratio": "≤ 0.25"},
      {"variant": "KALM", "enrichment ratio": "≤ 0.25"},
      {"variant": "PLET", "enrichment ratio": "≤ 0.25"},
      {"variant": "VFMA", "enrichment ratio": "≤ 0.25"},
      {"variant": "KPKP", "enrichment ratio": "≤ 0.25"},
      {"variant": "MFCF", "enrichment ratio": "≤ 0.25"},
      {"variant": "HMLH", "enrichment ratio": "≤ 0.25"},
      {"variant": "LQAP", "enrichment ratio": "≤ 0.25"},
      {"variant": "ICDK", "enrichment ratio": "≤ 0.25"},
      {"variant": "ATVC", "enrichment ratio": "≤ 0.25"},
      {"variant": "DESS", "enrichment ratio": "≤ 0.25"},
      {"variant": "QNST", "enrichment ratio": 2.38},
      {"variant": "MDHA", "enrichment ratio": "≤ 0.25"},
      {"variant": "KSPM", "enrichment ratio": "≤ 0.25"},
      {"variant": "AHHY", "enrichment ratio": "≤ 0.25"},
      {"variant": "PTLT", "enrichment ratio": "≤ 0.25"},
      {"variant": "LDHH", "enrichment ratio": "≤ 0.25"},
      {"variant": "HSSH", "enrichment ratio": "≤ 0.25"},
      {"variant": "KHEH", "enrichment ratio": "≤ 0.25"},
      {"variant": "ATMH", "enrichment ratio": 12.3},
      {"variant": "LAEI", "enrichment ratio": "≤ 0.25"},
      {"variant": "WFYA", "enrichment ratio": "≤ 0.25"},
      {"variant": "LGTW", "enrichment ratio": "≤ 0.25"},
      {"variant": "WMHG", "enrichment ratio": "≤ 0.25"},
      {"variant": "LAWH", "enrichment ratio": "≤ 0.25"},
      {"variant": "KDSL", "enrichment ratio": "≤ 0.25"},
      {"variant": "LLTR", "enrichment ratio": "≤ 0.25"},
      {"variant": "EDCR", "enrichment ratio": "≤ 0.25"},
      {"variant": "MGSD", "enrichment ratio": "≤ 0.25"},
      {"variant": "SIPY", "enrichment ratio": "≤ 0.25"},
      {"variant": "IGHW", "enrichment ratio": "≤ 0.25"},
      {"variant": "GACS", "enrichment ratio": 4.76},
      {"variant": "RNYF", "enrichment ratio": "≤ 0.25"},
      {"variant": "EMLY", "enrichment ratio": "≤ 0.25"},
      {"variant": "HILH", "enrichment ratio": "≤ 0.25"},
      {"variant": "WPLQ", "enrichment ratio": "≤ 0.25"},
      {"variant": "TEGQ", "enrichment ratio": "≤ 0.25"},
      {"variant": "NQKR", "enrichment ratio": "≤ 0.25"},
      {"variant": "ADYR", "enrichment ratio": "≤ 0.25"},
      {"variant": "FGMV", "enrichment ratio": 16.7},
      {"variant": "LHIR", "enrichment ratio": "≤ 0.25"},
      {"variant": "LFPS", "enrichment ratio": "≤ 0.25"},
      {"variant": "WPSD", "enrichment ratio": "≤ 0.25"},
      {"variant": "STWM", "enrichment ratio": "≤ 0.25"},
      {"variant": "IAWD", "enrichment ratio": "≤ 0.25"},
      {"variant": "LSCC", "enrichment ratio": "≤ 0.25"},
      {"variant": "FYNH", "enrichment ratio": "≤ 0.25"},
      {"variant": "IWTI", "enrichment ratio": "≤ 0.25"},
      {"variant": "WVSN", "enrichment ratio": "≤ 0.25"},
      {"variant": "RTHF", "enrichment ratio": "≤ 0.25"},
      {"variant": "SNAR", "enrichment ratio": "≤ 0.25"},
      {"variant": "YEGR", "enrichment ratio": "≤ 0.25"},
      {"variant": "PARE", "enrichment ratio": "≤ 0.25"},
      {"variant": "RRDY", "enrichment ratio": "≤ 0.25"},
      {"variant": "GWMM", "enrichment ratio": "≤ 0.25"},
      {"variant": "KTHN", "enrichment ratio": "≤ 0.25"},
      {"variant": "PLQL", "enrichment ratio": "≤ 0.25"},
      {"variant": "INDL", "enrichment ratio": "≤ 0.25"},
      {"variant": "TVWI", "enrichment ratio": "≤ 0.25"},
      {"variant": "IETK", "enrichment ratio": "≤ 0.25"},
      {"variant": "QGPW", "enrichment ratio": "≤ 0.25"},
      {"variant": "QVLG", "enrichment ratio": "≤ 0.25"},
      {"variant": "QYWY", "enrichment ratio": 8.23},
      {"variant": "LALR", "enrichment ratio": "≤ 0.25"},
      {"variant": "PQPI", "enrichment ratio": "≤ 0.25"},
      {"variant": "TLVQ", "enrichment ratio": "≤ 0.25"},
      {"variant": "NKIY", "enrichment ratio": "≤ 0.25"}
    ]}
  ]
}
